Measurements published in the supplement of paper PMC11417369.
± gives the standard deviation of the averaged measurements. This is one part of the list.

Each sequence was assayed on PfAP2-EXP AP2 domain (GST-tagged) (assay: gcPBM binding intensity (ln(normalized median fluorescence intensity)); higher = stronger DNA binding).
Outline: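 Using an Agilent 4 × 180k array, primer-extended double-stranded 36-bp intergenic genomic probes and negative controls were exposed for 1 h to GST-fused P. falciparum DNA-binding domains expressed in E. coli. Binding was carried out in 1× PBS with 1% milk, 0.2 mg/ml BSA, 0.5% salmon testes DNA and 0.03% Triton X-100, and protein was detected with Alexa488 anti-GST antibody and a 488 nm scan. Binding intensity is the highest Masliner-normalised natural-log median intensity across replicate spots of either probe orientation.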

Sequence | gcPBM binding intensity (ln)
TATTCATATTCCAAGTGTACACATAAATCCCTAATA [XGTACX_site4131] | 8.88 ± 0.43
AAAATATTTCTTCTTTGTACTTATATATATTTAATT [XGTACX_site5446] | 8.81 ± 0.48
TACTTACCTATAATAACACACAAGAAAAAAATAAAA [CACACA_site6616] | 8.58 ± 0.47
AAATAATATCATAAATGTACATATATCATATTATTA [XGTACX_site5372] | 8.29 ± 0.36
AAATTATAGAATCATTGTACTTTTTTTTTTTTTTTT [XGTACX_site1280] | 8.62 ± 0.16
CTCATCCTTACATACACACACATATATTTATTTATA [CACACA_site6202] | 8.99 ± 0.39
ATAATAACTTGTAAGGTGCATTTTATGTTTTCTTAA | 8.63 ± 0.085
AGAAATAATATTATTCAAGTATTTATTTAATTTTCA [GTGCAC_negctrl_site475] | 8.01 ± 0.35
TATGCTTCAAAATTGTGTACATATATAATATATTAT [XGTACX_site6760] | 8.79 ± 0.34
TTAATAATTATAACATGTACATACACTAAATTTTTT [XGTACX_site8953] | 8.7 ± 0.35
CAAATATATATTTATTGTACATATTGTTTATATGGT [XGTACX_site5246] | 8.77 ± 0.49
AAATATTTATATGTTACACACTGTTTATAATTTTCT [CACACA_site4868] | 8.51 ± 0.36
CAATGTATTTAGAATACATGCATATTTTCATAATGT [TGCATGCA_site221] | 8.6 ± 0.028
AATTATGCACAAATCACACATATAAAATAAAAAGTG [CACACA_site4474] | 8.87 ± 0.26
GTGGTATAAATTTTATGTACTTAATAACTCATTAAT [XGTACX_site5555] | 8.54 ± 0.33
AAAAATATTTAAAATACACACATATCTATAATATAT [CACACA_site7032] | 8.4 ± 0.24
ACATATATATTTATATGTACATATATTTATATATAT [XGTACX_site7469] | 8.41 ± 0.23
AATTCTTTACTATTCACACATATAAATATTCACTTT [CACACA_site4886] | 8.72 ± 0.4
CAAAATGTTAAAGATACACACCTAACAAACACAAAA [CACACA_site4685] | 8.74 ± 0.51
AAATCCATATAGGATTGTACATATATTATATATATA [XGTACX_site8818] | 8.84 ± 0.11
AAAAAAAAAAAACACACACACACAAATACATACACA [CACACA_site706] | 8.6 ± 0.6
TTTAATTTATATAATGATATTAAGTTGGTTATTAGG [CACACA_negctrl_site329] | 8.16 ± 0.37
ACAAAAATGAGATGGTGTACGCACAAATAAATAATA [XGTACX_site5221] | 9.07 ± 0.35

Sequence | gcPBM binding intensity (ln)
ATATAGTTTCACATGTGTACATAAAAATACACTTGT [XGTACX_site3339] | 8.35 ± 0.2
TTACGATTAAATATAACACACAACATATTTTTAATA [CACACA_site2967] | 8.24 ± 0.37
ATTATATTCTCCTTCACACACAAAAATATTTCATCA [CACACA_site5326] | 8.73 ± 0.45
AAGGATATGAAAAGTAGTACAAAATTTAGAACACCC [XGTACX_site4758] | 9.17 ± 0.37
CACAAAAATTTATACACACACATATATAATATATAT [CACACA_site152] | 8.59 ± 0.21
AAGTATTACAACCACACACACACCTATATATCATAG [CACACA_site7878] | 8.66 ± 0.47
ATCTTTTACGAATACACACACATAAAGAAAAAAAAA [CACACA_site1331] | 8.56 ± 0.42
ATTTCAAATTAATTTACACACTTCATACTAAAAGAC [CACACA_site3176] | 8.7 ± 0.35
TTGATATATAATAATACACACTTACATAATTAATTA [CACACA_site4320] | 8.38 ± 0.35
TATATATATATATATACACACATATACATATTGTTT [CACACA_site3499] | 10.2 ± 0.32
TCCTACATATAAAAATGTACCCATTGTTTTTTTTTT [XGTACX_site7205] | 8.46 ± 0.44
AATGTATATAGAAACATGCACACGTGGTTGTATATA [CACACA_site3278] | 8.89 ± 0.49
TTGTGTTAACTACCATGTACTTATACATCATAGGAA [XGTACX_site6627] | 8.43 ± 0.36
ATTTATGTTATATATACACACACAAAAGAAAAAAAA [CACACA_site8977] | 8.53 ± 0.47
TTTTTGTATGCTTCCCGATTACATTATGTTGTAAAT [CACACA_negctrl_site227] | 9.01 ± 0.41
TTTTTTATAAATCAAATGAAAAATAAACTATTCAGA [CACACA_negctrl_site1568] | 8.05 ± 0.46
ATACATATAAAAAAGTGTACATATTAAAATAAGTAT [XGTACX_site1310] | 8.54 ± 0.3
TCATACAAACCTATTTGTACATAAGTATAATATATA [XGTACX_site4284] | 8.23 ± 0.43
AATGCAAATAATAAAACACACAAAAAAAAGAAAAAA [CACACA_site1184] | 8.33 ± 0.41
ATATCCGTTCAAAGATGTACATATATATTCTATAGA [XGTACX_site5354] | 8.73 ± 0.46
TATTGCCCTGGACACACACACATATATATATATATA [CACACA_site5389] | 10.2 ± 0.51
ATTATTATTATATATGCATGTAAAATATTAAAGTAC [TGCATGCA_site914] | 9.005 ± 0.078
